According to PubChem BioAssay AID881 (National Center for Advancing Translational Sciences (NCATS), 2007):
The whole screen tested about 110,000 compounds, of which about 610 (0.55%) were called active. The shares of active, inactive and inconclusive entries below differ from those in the screen. Calls follow the shape of the dose curve; as a rule, active = well fitted inhibition curve with a large enough effect; inconclusive = small, poorly fitted or top-dose-only effect; inactive = no such curve, though single readings can be large or run the other way. Potencies of inconclusive entries are doubtful fits and often do not repeat.

target: Polyunsaturated fatty acid lipoxygenase ALOX15B (Homo sapiens) (UniProt O15296); assay: qHTS Assay for Inhibitors of 15-hLO-2 (15-human lipoxygenase 2); conditions: purified 15hLO-2, xylenol orange hydroperoxide absorbance; series mostly up to 57.1 µM; also: nearly all actives have a fitted effect of over 60% in size
UniProt O15296, sequence (O15296 whole entry, looked up): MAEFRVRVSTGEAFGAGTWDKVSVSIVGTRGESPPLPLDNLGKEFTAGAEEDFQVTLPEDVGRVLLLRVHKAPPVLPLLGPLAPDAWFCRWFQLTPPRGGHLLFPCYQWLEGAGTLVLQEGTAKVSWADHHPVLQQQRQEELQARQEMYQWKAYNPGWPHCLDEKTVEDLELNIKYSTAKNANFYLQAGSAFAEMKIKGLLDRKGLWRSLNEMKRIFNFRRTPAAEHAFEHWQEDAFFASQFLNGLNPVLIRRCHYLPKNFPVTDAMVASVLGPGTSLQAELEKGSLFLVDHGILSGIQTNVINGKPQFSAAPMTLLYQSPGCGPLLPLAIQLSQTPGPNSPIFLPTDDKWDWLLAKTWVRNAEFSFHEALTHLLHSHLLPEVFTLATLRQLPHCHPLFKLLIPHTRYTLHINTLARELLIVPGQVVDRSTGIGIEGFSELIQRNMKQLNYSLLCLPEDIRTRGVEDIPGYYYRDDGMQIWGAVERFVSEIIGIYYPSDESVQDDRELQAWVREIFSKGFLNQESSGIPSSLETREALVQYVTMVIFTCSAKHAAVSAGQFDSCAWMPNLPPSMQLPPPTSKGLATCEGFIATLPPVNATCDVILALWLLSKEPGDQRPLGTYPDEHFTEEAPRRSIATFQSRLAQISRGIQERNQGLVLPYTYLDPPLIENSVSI
Summary of the method: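 Enzyme 50 nM, AA 45 uM, 25 mM Hepes pH 7.5 + 0.01% Triton X-100; cpd preinc 15 min RT, rxn 90 min RT; stop/detect with 200 uM XO + 300 uM Fe(II) in 50 mM H2SO4, 30 min; A573/A405.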
% is scaled to controls: 0 for no effect and ±100 for the full control effect; potency is read from the fitted curve at half-maximal effect; tags tell the direction and shape of the fitted curve.

| Compound | Potency | activity change, negative = inhibition |
| --- | --- | --- |
| O=C1CC(N(O)c2ccccc2)C(=O)N1Cc1ccccc1 (stereo not given) | inconclusive: 12.6 µM [inhibitor, partial curve] | – |
| C[C@H](CCC(=O)O)[C@H]1CC[C@H]2[C@@H]3CC[C@@H]4C[C@H](O)CC[C@]4(C)[C@H]3CC[C@]12C | inconclusive: 22.4 µM [inhibitor, partial curve, poor fit] | – |
| CCOC(=O)Nc1ccc(NCc2ccc(F)cc2)nc1N | inconclusive: 12.6 µM [inhibitor, partial curve] | – |
| Nc1cccc2c(N)cccc12 | inconclusive: 15.8 µM [inhibitor, partial curve] | – |
| Cc1ccc(N2C(=O)NC(=O)C3(Cc4ccccc4N4CCN(c5ccccc5)CC43)C2=O)cc1 (stereo not given) | inconclusive: 20 µM [inhibitor, partial curve] | – |
| CCC(=O)OC1CCC2C3CCc4cc(O)ccc4C3CC[C@]12C (stereo not given in full) | inconclusive: 25.1 µM [inhibitor, single point] | – |
| CCOC(=O)c1c(-n2c(C)cc(C=C3C(=O)NC(=O)NC3=O)c2C)sc2c1CCCC2 | inconclusive: 10 µM [inhibitor, partial curve] | – |
| Nc1ccc2c3c(cccc13)CC2 | inconclusive: 15.8 µM [inhibitor, partial curve] | – |
| CCC(C=C[C@@H]1OC(=O)C=C[C@H]1C)=C[C@H](C)CC=CC(C)=C[C@@H](C)C(=O)[C@@H](C)[C@H](O)[C@@H](C)CC(C)=CC(=O)O | inconclusive: 0.126 µM [inhibitor, partial curve] | – |
| CN(C)CCOC(=O)c1cn(Cc2ccccc2)c2ccccc12 | inconclusive: 0.316 µM [inhibitor, partial curve] | – |
| O=C1CN(C(=O)CN2CCCCC2)C(c2ccccc2)c2cc(Br)ccc2N1 (stereo not given) | inactive | – |
| CC(C)Br | inactive | – |
| N#CC(C#N)=Cc1ccc([N+](=O)[O-])c(O)c1 | inactive | – |
| CC(=O)[O][Hg][c]1ccccc1 | active: 0.316 µM | – |
| O=C(Cn1c(=O)oc2cc(S(=O)(=O)N3CCCC3)ccc21)Nc1cccc(C(F)(F)F)c1 | inconclusive: 31.6 µM [inhibitor, partial curve] | – |
| CCCCC/C=C\C/C=C\C/C=C\C/C=C\CCCC(=O)O | inconclusive: 31.6 µM [inhibitor, partial curve, poor fit] | – |
| CCCCCCCCn1sccc1=O | inconclusive: 2.51 µM [inhibitor, full curve] | – |
| CC(N=Cc1c(O)[nH]c(=O)[nH]c1=O)c1ccccc1 (stereo not given) | inactive | – |
| CC(NCc1ccc(Cl)c(Cl)c1)C(O)c1ccccc1 (stereo not given) | inactive | – |
| c1ccc2c([C@@H]3CCN(CCN4CCOCC4)C3)c[nH]c2c1 | – | inactive: -4.51% [at 11.4 µM] |
| Cc1cc(SCc2sc(-c3ccc(C(F)(F)F)c(F)c3)nc2C)ccc1OCC(=O)O | inconclusive: 20 µM [inhibitor, single point] | – |
| CCOC(=O)C1=C(C)OC(N)=C(C(=O)OC)C12C(=O)Nc1ccc(Br)cc12 (stereo not given) | inconclusive: 25.1 µM [inhibitor, single point] | – |
| CCOC(=O)c1c(C)n(Cc2ccco2)c2ccc(O)cc12 | inconclusive: 3.16 µM [inhibitor, full curve] | – |

| Compound | Potency | activity change, negative = inhibition |
| --- | --- | --- |
| COC(=O)C(O)(c1ccc(NC(=S)NC(=O)c2ccccc2)cc1)C(F)(F)F (stereo not given) | active: 15.8 µM | – |
| FC(F)(F)c1nc2ccc(SSc3ccc4nc(C(F)(F)F)[nH]c4c3)cc2[nH]1 | – | inactive: -22.8% [at 11.4 µM] |
| CC(=O)Oc1c2c(c(CC=C(C)C)c3c1C(=O)C1=CC4CC5C(C)(C)OC(C/C=C(\C)C(=O)O)(C4=O)[C@]15O3)OC(C)(CCC=C(C)C)C=C2 (stereo not given in full) | inconclusive: 20 µM [inhibitor, partial curve] | – |
| CC(=O)Oc1ccc(Cl)c2cccnc12 | inconclusive: 39.8 µM [inhibitor, single point] | – |
| COc1cc(C2SCC(=O)Nc3c2c(C)nn3-c2ccccc2)cc(OC)c1OC (stereo not given) | inactive | – |
| O=C1C=CC(=O)c2c1ccc1c2ccc2ccccc21 | inconclusive: 2.51 µM [inhibitor, full curve] | – |
| Cc1cc(-c2ccc(N)c(C)c2)ccc1N | inconclusive: 15.8 µM [inhibitor, partial curve] | – |
| CCC1C(=O)OCC1Cc1cncn1C (stereo not given) | inactive | – |
| CCOc1ccc(-n2c(=O)c3c4c(sc3n(CC(=O)NCc3ccco3)c2=O)CCC4)cc1 | inconclusive: 20 µM [inhibitor, partial curve] | – |
| [O-]/[N+](=C/c1cccnc1)c1ccc(Br)cc1 | inconclusive: 31.6 µM [inhibitor, single point] | – |
| CC(C)c1cc2c(c(O)c1O)[C@]1(C(=O)O)CCCC(C)(C)C1CC2 (stereo not given in full) | inconclusive: 12.6 µM [inhibitor, partial curve] | – |
| O=C1OC(c2cc(I)c(O)c(I)c2)(c2cc(I)c(O)c(I)c2)c2ccccc21 | inconclusive: 8.91 µM [inhibitor, partial curve] | – |
| [N-]=[N+]=[N-] | inactive | – |
| Cc1c(OCC(F)(F)F)ccnc1CS(=O)c1nc2ccccc2[nH]1 (stereo not given) | inconclusive: 25.1 µM [inhibitor, partial curve] | – |
| Cc1cc(C=C2C(=O)N(C)C(=S)N(C)C2=O)c(C)n1C1CCCCC1 | inconclusive: 25.1 µM [inhibitor, partial curve] | – |
| C=CCOCC1CO1 (stereo not given) | inactive | – |
| Oc1ccc(/C=N/NP(=S)(c2ccccc2)c2ccccc2)cc1O | inconclusive: 12.6 µM [inhibitor, partial curve] | – |
| CCCN1CCc2cccc3c2[C@@H]1Cc1ccc(O)c(O)c1-3 | inconclusive: 3.98 µM [inhibitor, partial curve] | – |
| COc1ccc(C=O)cc1 | inactive | – |
| N[C@@H]1CCc2cc(O)c(O)cc2C1 | inconclusive: 6.31 µM [inhibitor, partial curve] | – |
| Oc1ccccc1O | inconclusive: 12.6 µM [inhibitor, partial curve] | – |
| CC(C)N1C(=O)/C(=C/C=C/c2ccco2)C(=O)N(Cc2ccco2)C1=O | inconclusive: 20 µM [inhibitor, partial curve] | – |
